# The campaign covered roughly 310,000 compounds. About 18,000 (5.8%) were called active. This list was built around the results that the source calls inconclusive (neither active nor inactive); the mix of calls is not that of the screen. Calls come from the whole dose curve; as a rule, active = well fitted inhibition curve with a large enough effect; inconclusive = small, poorly fitted or top-dose-only effect, or another doubt; inactive = no such curve, though single readings can be large or run the other way. No potency is given beside an inconclusive call; the fits are too rough.
# Assay: Primary qHTS for delayed death inhibitors of the malarial parasite plastid, 48 hour incubation
# Settings: P. falciparum luciferase growth in erythrocytes; series mostly up to 28.7 µM
# How it was run: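 Luminescence readout; reporter = integrated firefly luciferase in P. falciparum. RBC culture at 2% hematocrit, 0.1% parasitemia final, 37 C/5% CO2; decreased signal taken as growth inhibition.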
# Potency is the fitted concentration of half-maximal effect; tags give direction and shape of the fitted curve.
row,SMILES,Potency
1,O=C(Nc1ccc(N2CCOCC2)nc1)c1ccc(F)cc1,inactive
2,CCC(CC)C(=O)Nc1cccc(C(=O)NCCc2ccccc2)c1,inactive
3,CN(Cc1ccccc1)S(=O)(=O)c1ccc(Cl)c(C(=O)OCC(N)=O)c1,inactive
4,CCn1ccnc1CN(C)C(=O)c1cc(COc2c(F)cccc2F)on1,inactive
5,CCN1C(=O)[C@@H]2[C@@H](c3ccc(-c4ccc(F)cc4)cc3)N3CCC[C@@]3(C(=O)OC)[C@@H]2C1=O,"inconclusive [inhibitor, single point]"
6,CCOC(=O)c1nnc(-c2ccccc2)nc1N1CC(C)OC(C)C1 (configuration not stated),"inconclusive [inhibitor, single point]"
7,O=C(C1COc2ccccc2O1)N1CCN(c2ccccc2)CC1 (configuration not stated),"inconclusive [inhibitor, full curve]"
8,CCOC(=O)c1c(NS(C)(=O)=O)sc2c1CCC(C)C2 (configuration not stated),"inconclusive [inhibitor, single point]"
9,CC(=O)CC1OC(=O)C(Br)=C1NCc1ccccc1 (configuration not stated),inactive
10,O=C(NCCCN1CCOCC1)c1cc(-c2ccc(Cl)cc2)on1,"inconclusive [inhibitor, single point]"
11,Cc1c(NC(=O)/C(C#N)=C/c2ccccc2)c(=O)n(-c2ccccc2)n1C,"inconclusive [inhibitor, single point]"
12,CC(C)NC(=O)CSc1nc2ccccc2n1-c1ccccc1,"inconclusive [inhibitor, single point]"
13,COc1cc(NC(=O)c2cccc(F)c2)ccc1NC(=O)c1cc2ccccc2o1,inactive
14,CCOC(=O)C(C)Sc1nc2c(c(=O)[nH]c(=O)n2C)n1Cc1ccc(Cl)cc1 (configuration not stated),"inconclusive [inhibitor, single point]"
15,COc1ccc2c(c1OC)C(=O)N1C2SC[C@H]1C(=O)NC1CCCC1 (some centres not stated),inactive
16,Cc1nc2c(C(=O)NCc3ccc4c(c3)OCO4)cnn2c(C)c1Cc1ccc(F)cc1Cl,"inconclusive [inhibitor, single point]"
17,COc1ccc(OC)c(C2C3=C(N=c4s/c(=C\c5cccc(O)c5)c(=O)n42)c2ccccc2CC3)c1 (configuration not stated),active: 5.86 µM
18,O=[N+]([O-])c1ccc(N2CCCC2)cc1NC1CC1,"inconclusive [inhibitor, single point]"
19,CCCN1C(=O)/C(=C/c2c(N3CCNC(=O)C3CC(=O)OC)nc3c(C)cccn3c2=O)SC1=S (configuration not stated),"inconclusive [inhibitor, partial curve]"
20,CCCCn1nc(NC(=O)CC)c2cc3cc(OC)ccc3nc21,"inconclusive [inhibitor, single point]"
21,O=C(NCc1ccc2c(c1)OCO2)C1CCC(=O)N1C1CCCC1 (configuration not stated),inactive
22,O=C(Nc1ccc(F)c(F)c1)NC1CCCCC1,inactive
23,CCOC(=O)c1c(NC(=O)c2ccccc2)sc2c1CCc1ccccc1-2,inactive
24,CCCN1CCC(=O)N([C@H](CSc2ccc(OC)cc2)c2ccccc2)CC1,"inconclusive [inhibitor, single point]"

row,SMILES,Potency
1,COc1cc(NC(=O)c2cc(=O)[nH]c3ccc(S(=O)(=O)N4CCOCC4)cc23)cc(OC)c1,"inconclusive [inhibitor, single point]"
2,CSc1nnc(CCCCCNC(=O)OC(C)(C)C)o1,inactive
3,CC(OC(=O)Cc1ccsc1)C(=O)Nc1ccc(C(N)=O)cc1 (configuration not stated),inactive
4,CN1c2ccccc2N(C)C1(C)c1ccccc1,active: 2.33 µM
5,COc1ccc(S(=O)(=O)N2c3ccccc3OCC2C)cc1 (configuration not stated),"inconclusive [inhibitor, single point]"
6,CCCOc1ccccc1C1NC(=O)NC(C)=C1C(=O)OCCOC(C)C (configuration not stated),"inconclusive [inhibitor, partial curve, poor fit]"
7,COc1ccc(-n2c(CCc3ccccc3)nnc2SCC(=O)c2ccc(Cl)cc2)cc1,active: 13.1 µM
8,O=C(N/N=C/c1ccc(OC(=O)c2ccc(Br)cc2)cc1)c1ccncc1,"inconclusive [inhibitor, full curve, poor fit]"
9,O=C(NNC(=O)c1cc(-c2cccnc2)nc2ccccc12)Nc1ccc(Cl)cc1,"inconclusive [inhibitor, single point]"
10,COc1ccc(C(=O)NNC(=O)CCc2ccccc2OC)cc1,inactive
11,CC(=O)NCC(=O)OC(C(=O)c1ccccc1)c1ccc(Cl)cc1 (configuration not stated),inactive
12,COc1ccc(C2NC(=O)N(C)C(C)=C2[N+](=O)[O-])cc1 (configuration not stated),inactive
13,CC1(C(=O)N2CC3(CC(c4cccc(NC(=O)COc5ccc(Cl)cc5)c4)=NO3)C[C@@H]2C(N)=O)CC1 (some centres not stated),active: 13.1 µM
14,CC(C)CC(=O)NC(NC(=S)Nc1cccc2cccnc12)C(Cl)(Cl)Cl (configuration not stated),"inconclusive [inhibitor, single point]"
15,COc1ccc(NC(=O)CN2CCCC2c2cccs2)cc1S(=O)(=O)N1CCCCC1 (configuration not stated),"inconclusive [inhibitor, partial curve]"
16,COCc1ccc(CN2CCC(n3nccc3NC(=O)C(OC)c3ccccc3)CC2)o1 (configuration not stated),"inconclusive [inhibitor, single point]"
17,O=C(Nc1nnc(Cc2ccccc2)s1)C1CCC1,"inconclusive [inhibitor, single point]"
18,CC1CCN(CCCNC(=O)c2ccc3c(Cl)c4c(nc3c2)CCCC4)CC1,active: 13.1 µM
19,CCOc1ccccc1Nc1nc(-c2cccnc2)cs1,active: 13.1 µM
20,Cc1ccc(C2=Nc3ccccc3NC(C)(c3ccc(C)o3)C2)o1 (configuration not stated),"inconclusive [inhibitor, single point]"
21,CCc1cc(C(=O)N2CCCC(C(=O)c3ccc(Oc4ccccc4)cc3)C2)n(C)n1 (configuration not stated),"inconclusive [inhibitor, single point]"
22,O=C(CCn1cccn1)Nc1ccc2c(c1)OCCO2,inactive
23,COC(=O)c1c(NC(=O)c2ccc(N(C)S(=O)(=O)c3ccc(C)cc3)cc2)sc2c1CCCC2,"inconclusive [inhibitor, single point]"

# Source: PubChem BioAssay AID504832 (National Center for Advancing Translational Sciences (NCATS), 2011)
